# Hit rate of the full screen: of about 110,000 compounds, about 230 (0.21%) showed an effect of 50% or more. The list shows a part of the results.
# Biological target: DPAP1 (Plasmodium falciparum, UniProt Q8IIJ9)
# Assay: primary screen, percent inhibition; read by cleavage of a fluorogenic dipeptide substrate; higher = more effect of the substance
# Design: species or system P. falciparum D10 trophozoite lysates; single well
# 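Also: 30 min substrate incubation versus DMSO and 10 µM JCP410 controls.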
# DPAP1, sequence (Q8IIJ9 whole entry, looked up): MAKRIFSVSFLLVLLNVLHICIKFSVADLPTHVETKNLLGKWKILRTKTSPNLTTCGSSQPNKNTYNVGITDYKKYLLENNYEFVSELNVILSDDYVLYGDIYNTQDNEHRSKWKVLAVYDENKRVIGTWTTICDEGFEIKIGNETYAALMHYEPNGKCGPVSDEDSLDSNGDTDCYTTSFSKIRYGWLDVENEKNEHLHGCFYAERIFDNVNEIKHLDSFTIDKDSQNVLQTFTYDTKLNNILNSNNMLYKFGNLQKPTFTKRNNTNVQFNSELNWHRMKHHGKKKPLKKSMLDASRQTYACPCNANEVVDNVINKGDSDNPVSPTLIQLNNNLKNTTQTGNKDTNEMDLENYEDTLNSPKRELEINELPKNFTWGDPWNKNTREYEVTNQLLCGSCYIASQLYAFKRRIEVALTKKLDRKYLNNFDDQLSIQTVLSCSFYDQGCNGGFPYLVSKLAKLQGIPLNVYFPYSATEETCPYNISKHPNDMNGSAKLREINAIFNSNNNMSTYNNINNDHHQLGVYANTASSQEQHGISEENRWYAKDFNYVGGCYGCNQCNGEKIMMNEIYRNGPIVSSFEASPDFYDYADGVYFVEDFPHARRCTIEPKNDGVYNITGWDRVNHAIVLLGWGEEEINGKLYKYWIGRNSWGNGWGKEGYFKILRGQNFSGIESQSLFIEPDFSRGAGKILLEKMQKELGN
row,SMILES,% Inhibition @ 10 uM
1,CCOC(=O)N1CCN(Cc2nc3c(c(=O)n(C)c(=O)n3C)n2CCCc2ccccc2)CC1,2%
2,Cc1noc(C)c1S(=O)(=O)N1CCCC(C(=O)N2CCN(c3ccccn3)CC2)C1 (stereo not drawn),-1.03%
3,O=C(Nc1cccc(-c2cn3ccsc3n2)c1)c1ccccc1Cl,2.84%
4,CCC[C@H](NC(=O)C(CCSc1ccccc1)CCSc1ccccc1)C(=O)c1nc2ccccc2o1,-10.7%
5,C=CCNC(=O)/C(C#N)=C/c1c(Oc2ccccc2Cl)nc2ccccn2c1=O,-0.828%
6,Cc1ccc(C)c(-c2csc(N)n2)c1,4.26%
7,CC(C(=O)NCCN1CCOCC1)n1c2ccccc2c2cnn(C)c(=O)c21 (stereo not drawn),-3.79%
8,Fc1ccccc1-c1nn2c(Cc3ccccc3)nnc2s1,7.97%
9,COc1ccc(OCC(=O)Nc2ccc(S(=O)(=O)Nc3cc(C)on3)cc2)cc1,1.52%
10,COc1ccc(Cc2nc3c4cnn(-c5c(F)c(F)cc(F)c5F)c4ncn3n2)cc1OC,2.19%
11,CC(C)CC(=O)Nc1ccc(-c2cn3ccsc3n2)cc1,1.37%
12,COc1ccc(CNC(=O)C2=CCN(S(=O)(=O)c3ccc(Br)cc3)CC2)cc1,0.277%
13,COc1cc(C(=O)Nc2nn3c(CC(C)C)nnc3s2)cc(OC)c1OC,-2.79%
14,CC(C)(C)Nc1nc(Cl)nc(N2CCCCC2)n1,-2.51%
15,CN(C)CCCN(C(=O)c1nc2ccccc2s1)c1nc2ccc(F)cc2s1,2.25%
16,COc1ccc(CNC(=O)CCC(=O)N2Cc3ccccc3Oc3ncccc32)cc1,-1.52%
17,CCCc1nc(-c2ccc(-c3ccc(F)cc3)cc2)no1,-0.771%
18,CCCCN(C)S(=O)(=O)c1ccc(C(=O)Nc2sc3c(c2C(=O)OC)CCN(C)C3)cc1,2.04%
19,CCCN(CCC)S(=O)(=O)c1ccc(C(=O)OCC(=O)c2ccccc2)cc1,-4.59%
20,OCC(CO)C(c1ccccc1)C(CO)CO,3%
21,CCOc1ccc(C2C3=C(CC(C)(C)CC3=O)N(CC(=O)O)C3=C2C(=O)CC(C)(C)C3)cc1OCC,-5.67%
22,Cn1cccc1C(=O)NS(=O)(=O)c1ccccc1Cl,-1.93%
23,Cc1cc(C)nc(SCC(=O)Nc2ccc(S(=O)(=O)Nc3onc(C)c3C)cc2)n1,-1.52%
24,COc1cc(CNCCO)ccc1OCc1ccc(Cl)cc1Cl,-0.0619%
25,CCOC(=O)N1CCN(C(=O)Cn2nc(-c3ccc(Cl)cc3)ccc2=O)CC1,3.24%
26,CCc1ccc(C2C3=C(O)CCCC3=Nc3nn(-c4ccccc4)c(O)c32)cc1 (stereo not drawn),2.1%

row,SMILES,% Inhibition @ 10 uM
1,CC1CC(=O)C2=C(C1)OC(N)=C(C#N)C2c1cccc(C(F)(F)F)c1 (stereo not drawn),-1.38%
2,Cc1cc(NS(=O)(=O)c2ccc(NC(=O)c3ccc(Cl)c(Cl)c3)cc2)no1,4.39%
3,O=C(Nc1ccccc1C(=O)O)c1cccc(N2C(=O)c3ccccc3C2=O)c1,-3.24%
4,CCN1CCN(Cc2csc3c2CCCC3)CC1,1.77%
5,N#CCNC(=O)C(CCCCF)NC(=O)c1ccccc1 (stereo not drawn),-5.21%
6,COc1ccccc1CN1CCSCC1,-2.08%
7,CCCCn1c(=N)c(C#N)cc2c(=O)n3cc(C)ccc3nc21,-2.77%
8,Cc1ccc(S(=O)(=O)n2ccc(C)n2)cc1,-3.65%
9,COc1ccc(OC)c(-c2noc(CSc3nc(N)cc(O)n3)n2)c1,-1.11%
10,CC(=O)Nc1ccc(CN2CCN(c3cccc(C(F)(F)F)c3)CC2)cc1,4.73%
11,CN1CCCN(Cc2ccc(Cl)cc2Cl)CC1,-3.56%
12,CC(C)CCn1c(=O)c2sccc2n2c(CCCC(=O)NC3CC3)nnc12,-1.87%
13,O=C1N/C(=C/c2ccc(O)c(Cl)c2)C(=O)N1Cc1ccccc1F,5.42%
14,COCCn1ccc2nc(C)c(C(=O)O)cc2c1=O,0.708%
15,COc1ccc(S(=O)(=O)Cc2ccc(C(=O)N3CCN(Cc4ccccc4)CC3)o2)cc1,-1.28%
16,CCOC(=O)c1[nH]c2ccccc2c1NC(=O)COc1ccc(Cl)cc1,-5.77%
17,Nc1nonc1-n1nnc(C(=O)O)c1-c1ccc(C2CCCCC2)cc1,4.84%
18,CCCN1CCN(CCCNC(=O)CN2N=C(c3ccc(Cl)cc3)CCC2=O)CC1,-1.21%
19,CC(C)C(C(=O)NCc1ccccn1)N1Cc2ccccc2C1=O (stereo not drawn),0.56%
20,COCCN1C(=O)c2ccccc2C(C(=O)N2CCCCC2C)C1c1cn(C)c2ccccc12 (stereo not drawn),5.1%
21,CC(=O)CCc1c(C)nc2ccccc2c1Cl,-7.15%
22,CCn1c(C(=O)O)cc2oc(C)cc21,0.0882%
23,COc1ccc(C(CC(=O)O)NC(C)=O)cc1OC (stereo not drawn),1.62%
24,CC1CCCC(NC(=O)Cn2ncc3c4ccccc4n(C)c3c2=O)C1C (stereo not drawn),-1.92%
25,COc1cc(CNc2ccc(F)c(Cl)c2)cc2c1OCO2,-2.18%
26,O=C(O)C1OC(c2cccc(Cl)c2)=NC12CC2 (stereo not drawn),1.74%

row,SMILES,% Inhibition @ 10 uM
1,CCCCP(=O)(O)COc1ccccc1O,-0.712%
2,O=C(COc1ccc(Br)cc1)N1CCCc2ccccc21,-10.2%
3,O=C(NC1CCCCC1)C(O)C(O)C(=O)NC1CCCCC1 (stereo not drawn),1.34%
4,N#CCNC(=O)C1(NC(=O)c2ccc(Cl)nc2)CCCCCC1,0.079%
5,COc1ccc(Cc2c(O)nc(S)nc2O)cc1,2.6%
6,CC(C)C(=O)n1nc(-c2ccco2)nc1NCc1ccccc1,-1.47%
7,COc1ccc(CN2CCCCC2)c(OC)c1,0.273%
8,CCc1ccccc1OCCN1CCOCC1,-4.8%
9,Clc1cccc2c(NC3CCCCC3)cnnc12,-2.15%
10,CC1=C(C(=O)Nc2ccc(C)cn2)C(c2ccc(N(C)C)cc2)C2=C(O)CC(C)(C)CC2=N1 (stereo not drawn),4.39%
11,O=C(Nc1ccncc1)c1cc(-c2ccccc2)nc2ccccc12,1.59%
12,c1ccc(CNCC2CCCCC2)cc1,2.01%
13,CCOc1ccc(NC(=O)C2=C(C)NC(=O)NC2c2ccc(O)c(OCC)c2)cc1 (stereo not drawn),2.19%
14,C=CCn1c(SCC(=O)NC(=O)NC)nc2sc3c(c2c1=O)CCN(C(=O)OCC)C3,0.101%
15,CN(C)c1ccc(-c2nc(-c3ccccc3)nc(-c3ccccc3)n2)cc1,-1.29%
16,Cc1cc(C)c(C#N)c(SCC(=O)NCCc2ccccc2)n1,5.18%
17,CCCCC(=O)Nc1ccc(C(=O)c2ccccc2)cc1,-2.65%
18,CN(CCc1ccccn1)c1ncnc2c1cnn2C,-0.757%
19,O=S(=O)(Nc1ccc(S(=O)(=O)N2CCc3ccccc32)cc1)c1ccc(Cl)cc1,3.8%
20,COC(=O)c1cc2sc(Cl)cc2n1Cc1cc(=O)n2ccccc2n1,-5.37%
21,COc1ccccc1/C=c1\sc2nc3cc(C)c(C)cc3n2c1=O,-0.053%
22,Cc1cc(C)n(-c2ncc(-c3ccccc3)nn2)n1,2.1%
23,CC1=CC2=NC(=O)/C(=C\c3ccc(OC(C)c4ccccc4)cc3)C(=N)N2O1 (stereo not drawn),2%
24,C#CC(C)(C)NC(=O)/C=C/c1ccccc1Cl,5.04%
25,Cc1ccc(S(=O)(=O)Nc2nc3ccccc3nc2Nc2cccc(/C=C/C(=O)O)c2)cc1,4.54%
26,c1ccc(Oc2cccc(CNc3ccc4c(c3)CCC4)c2)cc1,-6%

row,SMILES,% Inhibition @ 10 uM
1,N#Cc1c(N)nc(O)c(-c2ccccc2)c1-c1ccccc1,-10.2%
2,O=C(NC1(C(F)(F)F)C(=O)Nc2c1c(=O)[nH]c(=O)n2-c1ccc(F)cc1)c1cccs1 (stereo not drawn),-1.22%
3,CCOc1ccc(S(=O)(=O)N(C(C)=O)c2ccc3oc(C)c(C(C)=O)c3c2)cc1,-6.75%
4,O=C1NC(=O)/C(=C\c2ccc(-c3cccc(Br)c3)o2)S1,5.04%
5,Cc1ccn(-c2[nH]nc(C)c2[N+](=O)[O-])n1,-5.68%
6,CCc1c(C)nc2ccc(C)cc2c1O,1%
7,Cc1cc(C)n(-c2nc3c(c(=O)[nH]c(=O)n3C)n2C)n1,2.7%
8,C#CC(C)(CC)NC(=O)c1cnn2c(C(F)(F)F)cc(-c3cccc(OC)c3)nc12 (stereo not drawn),-0.703%
9,O=S(=O)(c1cc(Cl)ccc1Cl)N1CCc2ccccc21,0.827%
10,Cc1ccc(N(CC(=O)N2CCC(C)CC2)S(C)(=O)=O)cc1C,-3.26%
11,COc1cc(/C=C2/SC(=O)N(CC(=O)Nc3ccc(C)c(C)c3)C2=O)ccc1O,10%
12,CCOc1ccccc1/C=C1\N=C(c2cc(OC)c(OC)c(OC)c2)OC1=O,0.0855%
13,O=C(O)C1Cc2c([nH]c3ccccc23)C(c2ccccc2Cl)N1 (stereo not drawn),-1.8%
14,CC(=O)c1cccc(N2CN=c3s/c(=C\c4ccco4)c(=O)n3C2)c1,2.11%
15,CCCCn1c(S)nc2ccccc21,4.88%
16,N#C/C(=C\Nc1ccccc1O)C(=O)NC(=O)Cc1ccccc1,-2.87%
17,CCn1cc2nc(SCC(=O)NCc3ccco3)n(CCc3ccccc3)c(=O)c2n1,-0.166%
18,Cc1ccc(OC2OC(CO)C(O)C(O)C2O)cc1 (stereo not drawn),-1.62%
19,CN(Cc1ccccc1)C(=O)CCCN1C(=O)CSc2ncccc21,1.03%
20,Cc1nc2ccccc2c2oc(C(=O)NCCC3=CCCCC3)cc12,1.62%
21,CCCCN(C)C(=O)Cn1cnc2sc(C)cc2c1=O,42.9%
22,COCCN(CCc1ccncc1)S(=O)(=O)c1csc(C(N)=O)c1,-1.41%
23,CCN(CC)c1ccc(NC(=O)c2cc(OC)c(OC)c(OC)c2)cc1,1.86%
24,COc1cc(NC(=O)c2cccc(OC(F)F)c2)cc(OC)c1OC,-5.35%

# Reference: paper PMC6919601, “Identification of Plasmodium dipeptidyl aminopeptidase allosteric inhibitors by high throughput screening” (PLoS ONE, 2019)
